Source: the RNAGym collection of RNA variant scans (doi:10.1093/nar/gkz1192)
Read counts are not given, so values of variants with three or more changes are uncertain.

B1: CPEB3 Ribozyme (parent)
chain: UAACAGGGGGCCACAGCAGAAGCGUUCACGUCGCAGCCCCUGUCAGAUUCUGGUGAAUCUGCGAAUUCUGCUGUAUAUCUC

Variants of: B1
Assay: self-cleavage, relative activity (ratio to wild type); higher = more cleavage; in vitro, sequencing
Method in brief: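 CPEB3 self-cleaving ribozyme mutant libraries were made by rounds of error-prone PCR, barcoded, and transcribed in vitro with T7 RNA polymerase for 5 hours at 37°C. Cleavage occurred during transcription and a 15 min DNase I step before EDTA stop. RNAs were reverse transcribed with template switching and Illumina-sequenced, with DNA sequencing mapping barcodes to variants. Relative activity is the variant's cleaved/total read fraction divided by wild type's (minimum 5 reads), averaged across three batches.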

Variant | self-cleavage
A13C U26A C39A U67C U74A | 0.11
A13C U26C A57G A64U U67G | 0.2
A13C U31C G36A A47U U54C | 0.07
A13C U31C U58C U60A | 0.14
A13C U43A G53A C68A | 0.53
A13C U43A G53A U72C | 1.1
A13C U51A C81G | 1.19
A13C U69A C79U | 0.21
A13G A15G A18U U67G | 0.29
A13G A15G A20U A47U U54G | 0.3
A13G A15G C29A A56G A64U U67C U76A | 0.06
A13G A15G C32U U43C A57G A65G | 0.05
A13G A15G C38U U54C U72C | 0.4
A13G A15G U25A G33A U67A U80A | 0.26
A13G A15G U25C U80C | 0.51
A13G A15G U26A | 0.38
A13G A15G U41A A45U | 0.28
A13G A15G U51A U54A U67C | 0.11
A13G A15G U78C | 0.29
A13G A15U A28G U60C U67C U72G A75U | 0.03
A13G A15U A35U U41C U60C | 0.07

Variant | self-cleavage
A13G A15U A45U U76C | 0.42
A13G A15U C38U U58C U60C | 0.1
A13G A15U G30A U31C C32G G33U A45U | 0.07
A13G A15U U41A C62A | 0.18
A13G A15U U60A U76C | 0.19
A13G A18C U25C U48C U67A | 0.05
A13G A18C U41C | 0.39
A13G A18G A21G U26C U41C | 0.85
A13G A18G A35U A45G A47U | 0.17
A13G A18G A45G U49C U78C | 0.26
A13G A18G A47U U54G U67C U72C | 0.04
A13G A18G A64U | 0.27
A13G A18G C23A A45G A77G | 0.29
A13G A18G C29U C37U A56G A64G U72C | 0.1
A13G A18G G24A U26C A56U U72C A75G | 0.06
A13G A18G G33U A35C U48C A77U | 0.18
A13G A18G U41A A56G U80C | 0.45
A13G A18G U41C U54C U74C A75G | 0.17
A13G A18G U43C A45G U67A | 0
A13G A18U A20G U31A U60C U74A | 0.06
A13G A18U A21G U49A U54C | 0.04

Variant | self-cleavage
A13G A18U A75G | 0.21
A13G A18U U41C U66C | 0.51
A13G A18U U43A U69A U80A | 1.14
A13G A18U U49C U80A | 0.34
A13G A18U U51C U60A | 0.1
A13G A18U U74C | 0.21
A13G A20G A21G U51C | 0.07
A13G A20G A28G A64G U66C U78C | 0.08
A13G A20G A28G G33U U67C A77G | 0
A13G A20G A45G U78A | 0.55
A13G A20G A45U C50A | 0.3
A13G A20G A47G G55U | 0.48
A13G A20G A57G A65G U69A | 0.17
A13G A20G A64G | 0.31
A13G A20G A75G | 0.54
A13G A20G C23U U26C U41A | 0.36
A13G A20G G24A U43A U51A A65G | 0.15
A13G A20G U25C G33C | 0.24
A13G A20G U25G U43A U54A | 0.06
A13G A20G U26A A56U U69C | 0.06
A13G A20G U26C U41A U60A U69C | 0.04

Variant | self-cleavage
A13G A20G U31G | 0.31
A13G A20G U49C A77U | 0.24
A13G A20G U69G | 0.55
A13G A20G U80C | 0.75
A13G A20U A47G A75G | 0.12
A13G A20U U31A G46A U49C U54G A57G | 0.03
A13G A20U U69C U80C | 0.1
A13G A21C C62U | 0.24
A13G A21C U31A U51C | 0.05
A13G A21G A28U U43C U49A U80A | 0.04
A13G A21G A35G U67C U69G | 0.14
A13G A21G A45G | 0.33
A13G A21G A56G C59U U67C | 0.14
A13G A21G A57G U58A U76C | 0.18
A13G A21G C29U U43G | 0.06
A13G A21G C32G A47U U69A U72C | 0.07
A13G A21G C59A C71U U72C | 0.13
A13G A21G U26C U43C U48C C71U | 0.14
A13G A21G U48A | 0.05
A13G A21G U54C C59G A77G | 0.13
